Results on 91 sequences are retold here after the supplement of paper PMC10338343.

± gives the standard deviation. Over roughly 3,700 sequences, “pre-steady-state target cleavage rate” has its median near 0.02; the highest 2% begin near 0.23. The list shows a part of the results, in another mix than the full data. Where only a bound is given, the exact number is not on record here.

The assay has as its system MILI (PIWIL2) piRISC loaded with Kctd7 piRNA (26 nt). Kind of assay: pre-steady-state target cleavage rate (min^-1); MIWI and MILI are mouse PIWI proteins and EfPiwi is from a freshwater sponge; tags in brackets are library labels; higher = faster piRNA-guided slicing of the target. The settings on record: guide: Kctd7 piRNA 5'p-UGUUAAUCUCUCAGAGAAGGUGACAG; auxiliary factor: 500 nM mouse GTSF1. The procedure: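 Cleave-'n-Seq: a library of target RNAs (target site embedded in constant flanks, ACAGCATTCCGCGTTAGTGATATCCG... 5' flank; DNA-blocked outside the site) at 0.1 nM was incubated with 1 nM active mouse MILI or MIWI piRISC (synthetic 5'-monophosphorylated piRNA guide) with or without 500 nM mouse GTSF1 at 33 °C for 1 min to 16 h. Uncleaved targets were sequenced and normalised to non-target controls, and the pooled three trials were fitted to a burst-and-steady-state model to give the pre-steady-state cleavage rate (min^-1; k3 is constrained to at most 1e-4). Sequence is the target site only; target names encode pairing extent (gX:gY) and contiguous / 1-mismatch / 2-mismatch / bulge geometry. Fits with R² ≤ 0 are excluded.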
UAGUGACAGUGCUUCUCUGAGAGCAUUAACA: the “pre-steady-state target cleavage rate” value turned out to be 0.0156 ± 0.0038.

With UAGUCACACACCUUCUCUGAGAGAUUAUGA, the “pre-steady-state target cleavage rate” value was 0.0595 ± 0.018.

For the sequence UAGUGACAGACCAUCUGUGAGAGAUUAACA, the “pre-steady-state target cleavage rate” value was determined as 0.0275 ± 0.0074.

On to UAGUGACAGUGCUUCAUCUGAGAGAUUAACA, for which the “pre-steady-state target cleavage rate” value is 0.00529 ± 0.0024.

For UAGUGACAGUGCUUCUCUGAGAGAUUAGACA, the “pre-steady-state target cleavage rate” value was 0.00902 ± 0.0031.

For UAGUGAGUGACCUUCUCUGAGAGAUUAUCA, the “pre-steady-state target cleavage rate” value amounted to 0.0842 ± 0.015.

As to UAGUGACACUGGUUCUCUGAGAGAUAUUGA, the “pre-steady-state target cleavage rate” value is less than 0.0001.

Turning to UAGUGAGUCACCUUCUCUGAGAGAUAACA, the “pre-steady-state target cleavage rate” value was 0.107 ± 0.038.

UAGUGACACACCUUCAUCUGAGAGAUUAACA: the “pre-steady-state target cleavage rate” value was 0.0394 ± 0.012.

Regarding UAGUGUGUCACCUUCUCUGUGAGAUUUUGA, the “pre-steady-state target cleavage rate” value is 0.00698 ± 0.0049.

UAGUGACACACCUUCUCUCUGAGAUUAACA: the “pre-steady-state target cleavage rate” value turned out to be 0.00653 ± 0.0037.

In the case of UAGUCUGUCACCUUCUGACAGAGAUUAACA, the “pre-steady-state target cleavage rate” value came to 0.014 ± 0.0054.

Turning to UAGUGAGUCAGCUUCUCUGAGAGAAUAACA, the “pre-steady-state target cleavage rate” value turned out to be 0.0677 ± 0.016.

Take UAGUGUGUCUCCUACUCUGAGAGAUUAACA: the “pre-steady-state target cleavage rate” value was found to be 0.104 ± 0.012.

For the sequence UAGUGAGACAGCUUCUCUGAGAGAUUAACA, the “pre-steady-state target cleavage rate” value was 0.0918 ± 0.0066.

Take UAGUGAGUCACCAUCUCUGAGAGAUUAACA: the “pre-steady-state target cleavage rate” value came to 0.195 ± 0.013.

In the case of UAGUGACUCACCUUCUCUGUGAGAUUUACA, the “pre-steady-state target cleavage rate” value was found to be 0.0274 ± 0.0087.

Regarding “UAGUGUGUCACCUUCUCUGAGAGAUUAACU [g2:g25:cont:t1U]”, the “pre-steady-state target cleavage rate” value is 0.187 ± 0.015.

With UAGUGAGUCACCUUCACUGAGAGAUUUACA, the “pre-steady-state target cleavage rate” value is 0.135 ± 0.026.

For UAGUCUGUCACCUUCGUCUGAGAGAUUAACA, the “pre-steady-state target cleavage rate” value was found to be 0.116 ± 0.0099.

UAGUGACUCACCUUCUCUGACACAUUAACA: the “pre-steady-state target cleavage rate” value came to 0.00743 ± 0.004.

Turning to UAGUCUGUCACCUUCUCUGGGAGAUUAACA, the “pre-steady-state target cleavage rate” value stood at 0.213 ± 0.014.

Turning to UAGUGACACACCUUCGUCUGAGAGAUUAACA, the “pre-steady-state target cleavage rate” value was 0.0417 ± 0.007.

As for UAGUGACAGACCUUCUCUGAGAGAUGAACA, the “pre-steady-state target cleavage rate” value was found to be 0.0194 ± 0.0082.

With UAGUGACUCACCUUCUCUGAGAGAUUAAGA, the “pre-steady-state target cleavage rate” value turned out to be 0.106 ± 0.015.

Regarding UAGUGACAGUGCUUCUCUGACAGUUUAACA, the “pre-steady-state target cleavage rate” value was less than 0.0001.

As to UAGUGAGUCACCUUCUCUGAGGAUUAACA, the “pre-steady-state target cleavage rate” value is 0.0489 ± 0.016.

As to UAGUGAGUCACCUUCUCUGUGAGAAUAACA, the “pre-steady-state target cleavage rate” value was determined as 0.0115 ± 0.0047.

UAGUGACACACCUACUCUGAGAGAAUAACA: the “pre-steady-state target cleavage rate” value was 0.00881 ± 0.0041.

As to UAGUGACAGUGCUUCCCUGAGAGAUUAACA, the “pre-steady-state target cleavage rate” value was found to be 0.0245 ± 0.0075.

As for UAGUGACAGACCUUCCUCUGAGAGAUUAACA, the “pre-steady-state target cleavage rate” value turned out to be 0.0307 ± 0.0059.

For the sequence UAGUGACAGUCCUUCUGUCAGAGAUUAACA, the “pre-steady-state target cleavage rate” value came out at 0.00956 ± 0.0043.

For the sequence UAGUGACAGUGGAAGAGACUGAGAUAUAACA, the “pre-steady-state target cleavage rate” value was less than 0.0001.

UAGUGAGUCACCUUCUCUGAGAGAUUUAACA: the “pre-steady-state target cleavage rate” value turned out to be 0.225 ± 0.04.

UAGUGAGUCACCUUCCCUGAGAGAUUAACA: the “pre-steady-state target cleavage rate” value came to 0.394 ± 0.074.

UAGUGACACAGCUUCUCUGAGACAUUAACA: the “pre-steady-state target cleavage rate” value turned out to be 0.0087 ± 0.0021.

For UAGUGACACACCUUCUGUGAGAGAUUUUGA, the “pre-steady-state target cleavage rate” value was 0.0219 ± 0.0092.

Take UAGUGAGUCAGGAUCUCUGAGAGAUUAAGA: the “pre-steady-state target cleavage rate” value worked out at 0.00731 ± 0.0022.

Consider UAGUGACACACCUUCUCUGAGAGAAUUAACA, for which the “pre-steady-state target cleavage rate” value was determined as 0.175 ± 0.035.

Take UAGUGACUCACCUUCACUGAGAGAUUAAGA: the “pre-steady-state target cleavage rate” value turned out to be 0.0749 ± 0.015.

As to “UAGUGACACACCUUCUCUGAGAGAUUAACG [g2:g22:cont:t1G]”, the “pre-steady-state target cleavage rate” value is 0.121 ± 0.0094.

Consider UAGUGACUCACCUUCUCUGAGAGAUUUAGA, for which the “pre-steady-state target cleavage rate” value was 0.0154 ± 0.006.

As for UAGUGAGUCACCUUCACUGAGAGAUUAUCA, the “pre-steady-state target cleavage rate” value was determined as 0.182 ± 0.041.

As for UAGUGACACACCAUUCUCUGAGAGAUUAACA, the “pre-steady-state target cleavage rate” value is 0.106 ± 0.012.

For UAGUCUCUCACCUUCUCUGAGAGAUUAACA, the “pre-steady-state target cleavage rate” value came to 0.0785 ± 0.018.

On to UAGUGACACUGCUUCUCUGAGAGAUUAUGA, for which the “pre-steady-state target cleavage rate” value was 0.00315 ± 0.0025.

On to UAGUGUGUCACGUUCUCUGAGAGAUUAUCA, for which the “pre-steady-state target cleavage rate” value stood at 0.0564 ± 0.0086.

Consider UAGUGACAGUCCUUCUGAGAGAGAUUAACA, for which the “pre-steady-state target cleavage rate” value was 0.0075 ± 0.0031.

As for UAGUGACUCAGCUUCUCUGAGAGAUUUACA, the “pre-steady-state target cleavage rate” value came out at 0.0407 ± 0.0075.

Take UAGUGACACAGCUUCUCUGAGAGAAUAACA: the “pre-steady-state target cleavage rate” value stood at 0.00726 ± 0.0037.

Regarding UAGUGACAGUGGUUCUCUUAGAGAUUAACA, the “pre-steady-state target cleavage rate” value was determined as 0.00345 ± 0.0024.

On to UAGUGACUCACCUUCUCUGUGACAUUAACA, for which the “pre-steady-state target cleavage rate” value came out at 0.026 ± 0.0047.

As to UAGUGACUCACCUUCUCUGAGAGAUUACCA, the “pre-steady-state target cleavage rate” value was determined as 0.0788 ± 0.015.

In the case of UAGUCUGUCACCAACUCUGAGAGAUUAACA, the “pre-steady-state target cleavage rate” value came out at 0.129 ± 0.0079.

Regarding UAGUGACUCACCUUCUCUGAGAGAUUAAGCA, the “pre-steady-state target cleavage rate” value amounted to 0.122 ± 0.023.

As for UAGUGUGUCACCUUUCUCUGAGAGAUUAACA, the “pre-steady-state target cleavage rate” value amounted to 0.187 ± 0.016.

Regarding UAGUGACAGUGCUUCUAUGAGAGAUUAACA, the “pre-steady-state target cleavage rate” value was determined as 0.0108 ± 0.0042.

Consider UAGUGACAGUCCUUCUCUGAGAGAUUGACA, for which the “pre-steady-state target cleavage rate” value was found to be 0.0987 ± 0.029.

On to UAGUGAGAGACCUUCUCUGAGAGAUUAUGA, for which the “pre-steady-state target cleavage rate” value amounted to 0.00813 ± 0.005.

With UAGUGACUCACCUUCUCAGAGAGAUUUUGA, the “pre-steady-state target cleavage rate” value came to 0.00816 ± 0.0047.

For UAGUGUGUCACCUUCUCUGAGAGAUAUACA, the “pre-steady-state target cleavage rate” value came to 0.0339 ± 0.013.

UAGUGUGUCACCUUCUCUGAGAUAUUAACA: the “pre-steady-state target cleavage rate” value is 0.0924 ± 0.021.

Take UAGUGACACACCUUCUCUGAGAGAUUAGACA: the “pre-steady-state target cleavage rate” value came out at 0.0824 ± 0.016.

Consider UAGUGACACUCCAUCUCUGAGAGAUUAACA, for which the “pre-steady-state target cleavage rate” value came out at 0.0501 ± 0.0083.

With UAGUGACUCACGUUCUCUGAGAGAUAAACA, the “pre-steady-state target cleavage rate” value was determined as 0.0188 ± 0.007.

As to UAGUGAGUCACCUUCUCUGAGAGAUAAUGA, the “pre-steady-state target cleavage rate” value is 0.0112 ± 0.0075.

Take UAGUGACAGUGCUUCUCUGUGAGAUUAAGA: the “pre-steady-state target cleavage rate” value came to 0.00296 ± 0.0028.

Turning to UAGUGACACUCCUUCUCUGAGAGAUUUACA, the “pre-steady-state target cleavage rate” value is 0.0825 ± 0.016.

As to UAGUGACAGUCCUUCUCUGAGAGAUUAAGCA, the “pre-steady-state target cleavage rate” value is 0.0236 ± 0.0065.

In the case of UAGUCUGUCACCAAGUCUGAGAGAUUAACA, the “pre-steady-state target cleavage rate” value was 0.122 ± 0.0088.

Regarding UAGUGACACACGUUCACUGAGAGAUUAACA, the “pre-steady-state target cleavage rate” value was 0.0988 ± 0.0062.

As for UAGUGACACACCUUCUCUGAGAGAUUACACA, the “pre-steady-state target cleavage rate” value stood at 0.154 ± 0.041.

On to UAGUGUGUCAGCUUCUCAGAGAGAUUAACA, for which the “pre-steady-state target cleavage rate” value turned out to be 0.0938 ± 0.0081.

Regarding UAGUGACUCCCUUCUCUGAGAGAUUAACA, the “pre-steady-state target cleavage rate” value was 0.127 ± 0.013.

As for UAGUGACAGUGCUUGUCAGAGAGAUUAACA, the “pre-steady-state target cleavage rate” value is 0.00497 ± 0.0031.

With UAGUGACUCACCUUCUCUGACAGAUUUACA, the “pre-steady-state target cleavage rate” value is 0.0254 ± 0.0083.

Consider UAGUGACUCACCUUCUCUGAGAGAAUAACA, for which the “pre-steady-state target cleavage rate” value stood at 0.0893 ± 0.022.

With UAGUCUGUCACCUUCUCUGAGAGAUUAACCA, the “pre-steady-state target cleavage rate” value came out at 0.196 ± 0.0085.

In the case of UAGUGACAGACCAAGUCUGAGAGAUUAACA, the “pre-steady-state target cleavage rate” value was 0.022 ± 0.0056.

For UAGUGUGUCACCAACUCUGAGAGAUUUUGA, the “pre-steady-state target cleavage rate” value was determined as 0.00551 ± 0.0041.

For the sequence UAGUGACAGACCUUCUCUGAGAGAUUAGACA, the “pre-steady-state target cleavage rate” value stood at 0.0711 ± 0.018.

As to UAGUGUGUGACCAUCUCUGAGAGAUUAACA, the “pre-steady-state target cleavage rate” value is 0.137 ± 0.011.

Turning to UAGUGACACACCUUCUCAGACAGAUUAACA, the “pre-steady-state target cleavage rate” value came to 0.0174 ± 0.0053.

Turning to UAGUGUGUCACCAUCUCUGAGAGAUUAACA, the “pre-steady-state target cleavage rate” value is 0.163 ± 0.01.

For the sequence UAGUGAGUCCACCUUCUCUGAGAGAUUAACA, the “pre-steady-state target cleavage rate” value is 0.165 ± 0.017.

Turning to UAGUGUGUCACCUUCUCUCAGAGAUUAAGA, the “pre-steady-state target cleavage rate” value turned out to be 0.0468 ± 0.018.

Regarding UAGUGACUCACGUUCUCUGAGAGAUUAUCA, the “pre-steady-state target cleavage rate” value stood at 0.0475 ± 0.0092.

With UAGUGUGUCACCUUCUCAGAGAGAUUAACA, the “pre-steady-state target cleavage rate” value was found to be 0.144 ± 0.016.

In the case of UAGUGUGUCACCUUCUCUGAGAGCAUUAACA, the “pre-steady-state target cleavage rate” value is 0.17 ± 0.022.

Take “UAGUGACAGUCCUUCUCUGAGAGAUUAACG [g2:g20:cont:t1G]”: the “pre-steady-state target cleavage rate” value was found to be 0.121 ± 0.019.

Take UAGUGACACACCAACUCUGAGAGAUUAAGA: the “pre-steady-state target cleavage rate” value was determined as 0.018 ± 0.0037.
